About 1,400 (0.36%) of roughly 390,000 compounds were called active. This list was built around the results that the source calls inconclusive (neither active nor inactive); the mix of calls is not that of the screen. Calls come from the whole dose curve; as a rule, active = well fitted inhibition curve with a large enough effect; inconclusive = small, poorly fitted or top-dose-only effect; inactive = no such curve, though single readings can be large or run the other way. Potencies of inconclusive entries are doubtful fits and often do not repeat.
molecular target: Flap endonuclease 1 (Homo sapiens) (UniProt P39748); test: qHTS Assay for the Inhibitors of Human Flap endonuclease 1 (FEN1).; note: nearly all actives have a fitted effect of over 65% in size; conditions: Recombinant FEN1 flap cleavage, fluorescence, 15 min; series mostly up to 114 µM; activity change, negative = inhibition: at the top concentration
Sequence of UniProt P39748 (P39748 whole entry, looked up): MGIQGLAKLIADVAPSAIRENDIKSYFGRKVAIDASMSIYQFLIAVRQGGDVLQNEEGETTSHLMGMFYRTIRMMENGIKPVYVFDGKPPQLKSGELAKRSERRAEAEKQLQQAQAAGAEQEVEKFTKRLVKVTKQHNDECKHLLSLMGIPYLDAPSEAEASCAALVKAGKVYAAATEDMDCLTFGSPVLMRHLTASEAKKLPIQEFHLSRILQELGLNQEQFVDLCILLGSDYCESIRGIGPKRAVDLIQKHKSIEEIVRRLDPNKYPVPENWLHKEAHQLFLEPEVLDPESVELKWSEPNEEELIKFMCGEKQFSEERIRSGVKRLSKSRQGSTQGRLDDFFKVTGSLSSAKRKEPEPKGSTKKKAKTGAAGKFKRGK
Outline: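 Concentration–response screening of FEN1 (10 nM): 15 min compound preincubation at room temperature, reaction started with 50 nM substrate and read at 0 and 15 min. Corrected, normalized data were fitted by a four-parameter Hill equation.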
% is set by controls: 0 for no effect and ±100 for the full control effect; potency is the fitted concentration of half-maximal effect; tags give direction and shape of the fitted curve.

SMILES	activity change, negative = inhibition	Potency
CN(C)CCN(Cc1ccco1)C(=O)c1cc2c(s1)-c1ccccc1OC2	inactive: 2.19%	
Cc1ccc2c(c1)N(C)/C(=C/c1cccc[n+]1C)S2		inconclusive: 50.1 µM [inhibitor, partial curve]
Cc1ccc(CNC(=O)Cn2c(=O)cc(C)c3c(C)nn(-c4cccc(F)c4)c32)cc1	inactive: -6.24%	
C#CCN1C(=O)S/C(=C/C=C/c2ccc(N(C)C)cc2)C1=O		inconclusive: 50.1 µM [inhibitor, partial curve]
Cc1ccc(-c2nc(C)sc2CC(=O)OCC(=O)Nc2ccc(F)c(Cl)c2)cc1		inconclusive: 28.2 µM [inhibitor, full curve]
O=C(N/N=C/C(Cl)=C/c1ccccc1)c1ccc2c(c1)OCO2		inconclusive: 79.4 µM [inhibitor, partial curve, poor fit]
Cc1cc(C)c(N2C(=O)C3C4CC(=O)C(c5ccccc54)C3C2=O)c(C)c1 (centres undefined)		inconclusive: 89.1 µM [inhibitor, single point]
Cc1ccc(S(=O)(=O)Nc2ccc(O)c3ccccc23)c(C)c1		inconclusive: 89.1 µM [inhibitor, partial curve, poor fit]
COC(=O)[C@@H](CC(C)C)NS(=O)(=O)N(Cc1ccccc1)[C@@H](CC(C)C)C(=O)OC		inconclusive: 89.1 µM [inhibitor, partial curve, poor fit]
N=C1/C(=C\c2ccc(SCc3ccco3)o2)C(=O)N=C2SC=NN12		inconclusive: 79.4 µM [inhibitor, single point]
N=c1n(CCN2CCOCC2)c2ccccc2n1CC(=O)c1ccc(Cl)c(Cl)c1		inconclusive: 50.1 µM [inhibitor, partial curve]
Cc1ccc(/C=c2\sc3nc(-c4ccccc4Br)nn3c2=O)o1		inconclusive: 89.1 µM [inhibitor, single point]
CCC(c1nnnn1Cc1ccccc1)N(Cc1ccccc1)Cc1cc2cc(C)ccc2[nH]c1=O (centres undefined)		inconclusive: 35.5 µM [inhibitor, partial curve, poor fit]
CC(C)(C)c1ccc(OCCCC(=O)Nc2cccc(S(=O)(=O)N3CCOCC3)c2)cc1		inconclusive: 35.5 µM [inhibitor, partial curve, poor fit]
O=C1N[C@@H](c2ccccc2)COC(=O)[C@@H](Cc2ccc(F)cc2)CC/C=C/C[C@H]1CC(=O)N(CCO)Cc1ccccc1		inconclusive: 79.4 µM [inhibitor, partial curve, poor fit]
Cc1ccc(-c2nc(NC(=O)CSc3cc(C)c4ccccc4n3)ns2)cc1		inconclusive: 1.58 µM [inhibitor, full curve, poor fit]
CN(C)/[N+]([O-])=N\Oc1cc(OC(=O)c2ccc(N)cc2)c([N+](=O)[O-])cc1[N+](=O)[O-]		inconclusive: 25.1 µM [inhibitor, single point]
CCc1ccc(NC(=O)N2CCOc3ccc(Cl)cc32)cc1	inactive: 3.32%	
Cc1ccnc(NS(=O)(=O)c2ccc(Cl)nc2)c1	inactive: -2.79%	
Nc1ccc(NC(=O)c2ccc(C(=O)Nc3ccc(N)cc3)cc2)cc1	inactive: -5.51%	
COc1ccccc1C(=O)NCCn1cc(SCC(=O)Nc2ccccc2F)c2ccccc21		inconclusive: 10 µM [inhibitor, partial curve, poor fit]
Cc1cc(-c2nc3c4c5c(sc4[nH]c(=O)n3n2)CCC5)c(C)o1		inconclusive: 89.1 µM [inhibitor, single point]

SMILES	activity change, negative = inhibition	Potency
COc1ccc(Nc2ncnc3sc(-c4ccccc4)cc23)cc1		inconclusive: 31.6 µM [inhibitor, partial curve, poor fit]
Cc1ccc(NC(=O)CCSc2nnnn2-c2ccc3c(c2)OCO3)cc1C		inconclusive: 56.2 µM [inhibitor, partial curve, poor fit]
O=C(COC(=O)Cc1ccccc1[N+](=O)[O-])NCc1ccc(Cl)cc1	inactive: -1.38%	
CCCSc1ncc(Cl)c(C(=O)Nc2ccc(S(=O)(=O)N(C)c3ccccc3)cc2)n1	inactive: 6.15%	
Cc1cc(N2CCOCC2)ccc1/C=C\[N+](=O)[O-]		inconclusive: 79.4 µM [inhibitor, partial curve, poor fit]
Cc1cc(C)c(NC(=O)c2sc3nc(C)cc(C)c3c2NC(=O)c2ccccc2)c(C)c1	inactive: -4.18%	
COc1cccc(-c2nc(C(=O)NCCCN3CCOCC3)cc3c2[nH]c2ccccc23)c1		inconclusive: 39.8 µM [inhibitor, full curve]
COc1ccccc1-n1c(-c2cc(-c3ccco3)[nH]n2)n[nH]c1=S		inconclusive: 20 µM [inhibitor, full curve, poor fit]
Cc1cc(F)ccc1NCc1ccc([N+](=O)[O-])cc1	inactive: -20.9%	
COC(=O)C1=C(O)/C(=C/c2ccc(OCC(=O)Nc3ccccc3)cc2)N=C1C		inconclusive: 50.1 µM [inhibitor, partial curve, poor fit]
C(=C\n1nnc2ccccc21)/c1ccc[nH]1		inconclusive: 44.7 µM [inhibitor, partial curve]
CC1=NN(c2ccccc2)C(=O)/C1=C/c1ccc(-c2ccc(C)c(C(=O)O)c2)o1		active: 17.8 µM
O=C1c2cc([N+](=O)[O-])cc3cc([N+](=O)[O-])cc(c23)C(=O)N1c1ccccn1		inconclusive: 79.4 µM [inhibitor, partial curve]
COc1ccc(C)cc1NC(=O)c1c(C)oc2ncn(CC(C)C)c(=O)c12		inconclusive: 44.7 µM [inhibitor, partial curve, poor fit]
CCN1C(=O)/C(=C2\SC(N3CCCCC3)=NC2=O)c2ccccc21		inconclusive: 79.4 µM [inhibitor, single point]
Cc1ccc(CN2C(=O)N/C(=C\c3cccn3-c3cccc(C(=O)O)c3)C2=O)cc1		inconclusive: 79.4 µM [inhibitor, partial curve, poor fit]
COc1ccc(CN2CCCN(S(=O)(=O)c3ccc(Br)cc3)CC2)cc1	inactive: -2.7%	
CCc1c(C)sc(NC(=O)c2cc(-c3cccc(Cl)c3)on2)c1C#N		inconclusive: 100 µM [inhibitor, partial curve, poor fit]
COc1ccc(N(C(=O)C(C)C)S(=O)(=O)c2cccs2)cc1		inconclusive: 25.1 µM [inhibitor, single point]
Cc1ccc2nc(-c3cc(NC(=O)/C=C/c4ccccc4)ccc3Cl)oc2c1		inconclusive: 89.1 µM [inhibitor, partial curve, poor fit]
O=C(CC1c2ccccc2Oc2ccccc21)N1CCN(c2ccccn2)CC1		inconclusive: 70.8 µM [inhibitor, partial curve, poor fit]
CCCCOC(=O)c1ccc(NC(=O)c2ccoc2C)cc1		inconclusive: 89.1 µM [inhibitor, partial curve, poor fit]

SMILES	activity change, negative = inhibition	Potency
Cc1ccc(C(=O)CSc2nc3ccccc3o2)cc1		inconclusive: 79.4 µM [inhibitor, partial curve, poor fit]
COc1ccc(OC)c(/C=C2\Oc3cc(OCC(=O)N4CC(O)C[C@H]4C(=O)O)ccc3C2=O)c1 (some centres undefined)		inconclusive: 50.1 µM [inhibitor, partial curve]
O=C(c1ccccc1)c1ccc(O)c(O)c1O		inconclusive: 39.8 µM [inhibitor, partial curve]
Cc1cc(C)c2nc(NNC(=O)c3cc(=O)c4ccccc4o3)sc2c1		inconclusive: 39.8 µM [inhibitor, single point]
Cc1cc(NCCN2CCOCC2)c2ccc3ccccc3c2n1		inconclusive: 25.1 µM [inhibitor, full curve, poor fit]
Cc1coc2c(C)c3oc(=O)c(CCC(=O)NCCc4ccccc4)c(C)c3cc12	inactive: 14.4%	
Cc1c(C)c2c(OCC(=O)N3CCC(C(N)=O)CC3)cc3c(c2oc1=O)CCC(C)(C)O3	inactive: 9.92%	
CN(C)CCNC(=O)c1cccc2nc3c(ccc4ccccc43)nc12		active: 12.6 µM
CCN1/C(=C/c2cccc[n+]2C)Sc2ccc(OC)cc21		inconclusive: 15.8 µM [inhibitor, full curve]
Cc1c(C(=O)O)sc(=S)n1-c1ccccc1	inactive: -0.0577%	
COc1ccc(Cc2nnc(Nc3ccccc3)s2)cc1Br		inconclusive: 56.2 µM [inhibitor, partial curve]
CCCCN(CCCC)CCNC(=O)Cn1nc(CC)n2c(cc3sc(C)cc32)c1=O	inactive: -18.3%	
O=C(Nc1cc(S(=O)(=O)N2CCOCC2)ccc1N1CCCCC1)c1ccc(Cl)cc1	inactive: -24.4%	
CC(C)n1c(SCC(=O)Nc2nncs2)nnc1-c1ccco1		inconclusive: 56.2 µM [inhibitor, partial curve, poor fit]
COc1cccc(-c2cc(C(=O)N3CCc4ccccc4C3)no2)c1		inconclusive: 89.1 µM [inhibitor, partial curve, poor fit]
COc1cc(/C=C/C(=O)O)cc(S(=O)(=O)Nc2ccc3nc(C)sc3c2)c1OC		inconclusive: 100 µM [inhibitor, partial curve, poor fit]
CC(=O)NC(CCC(=O)O)C(=O)O (centres undefined)	inactive: 14.6%	
COc1cccc(CN2CC(C(=O)NCCOc3cccnc3)CCC2=O)c1 (centres undefined)	inactive: 17.7%	
CCOC(=O)c1c(NC(=O)CN2C(=O)NC(C)(c3ccc(OC(F)F)cc3)C2=O)sc(C)c1C (centres undefined)		inconclusive: 39.8 µM [inhibitor, partial curve, poor fit]
Cc1cc(Cl)ccc1OCC(=O)Nc1ccccc1N1CCOCC1		inconclusive: 50.1 µM [inhibitor, partial curve, poor fit]

— PubChem BioAssay AID588795 (National Center for Advancing Translational Sciences (NCATS), 2011)
